± gives the standard deviation of the averaged measurements. Whole data set: some 33,000 sequences, median “E-score (dimensionless, -0.5 to 0.5)” near -0.049, cut for the highest 2% near 0.37. This is one part of the list.
System: T1, PmTbr T-box DNA-binding domain (GST fusion)
T1 sequence: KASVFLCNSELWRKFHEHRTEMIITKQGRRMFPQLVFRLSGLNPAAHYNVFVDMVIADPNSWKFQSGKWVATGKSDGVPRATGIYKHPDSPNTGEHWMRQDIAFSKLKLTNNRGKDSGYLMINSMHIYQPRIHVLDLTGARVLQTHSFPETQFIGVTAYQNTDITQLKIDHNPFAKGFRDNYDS
Assay: PBM E-score of 8-mer (E-score (dimensionless, -0.5 to 0.5)); Tbr is Tbrain of the sea star Patiria miniata (Pm) or the sea urchin Strongylocentrotus purpuratus (Sp); higher = stronger binding preference; most listed sequences are background and not binding sites
Conditions: the construct has about 5 more residues each side
How it was run: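 Expression of GST-fused Tbr T-box DNA-binding domains, each holding the full T-box plus roughly five flanking residues, was carried out in BL21 E. coli at 20 °C, with purification by glutathione affinity chromatography. Universal Agilent arrays made double-stranded by primer extension were incubated with the protein at 200 nM in PBS (pH 7.5), then scanned and quantified. All ungapped 8-mers were scored from probe intensities, and each received an enrichment E-score from the Universal PBM Analysis Suite, averaged over duplicate arrays.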

Point of comparison: GCTCAAGC, “PBM E-score of 8-mer” value -0.268 ± 0.0031. Against it:
- CACGAAGG — higher, 0.0208 ± 0.029
- CCCCTAAC — higher, -0.0953 ± 0.037
- CCCGGCGA — higher, -0.128 ± 0.02
- CATCACAG — higher, 0.109 ± 0.038
- CTATCTTC — higher, -0.137 ± 0.02
- GCAAACGA — higher, -0.129 ± 0.024
- ACGCGAGA — higher, 0.255 ± 0.0031
- GAAGCGGA — higher, 0.0167 ± 0.00077
- AGGACTAT — within error, -0.222 ± 0.048
- GAGCAAAC — higher, -0.0719 ± 0.032
- GTTCGAAA — higher, -0.132 ± 0.091
- AAGTTTTA — higher, -0.0533 ± 0.12
- ATAGGTTC — higher, -0.0931 ± 0.17
- AACCCCCT — higher, -0.163 ± 0.023
- CTTATGAA — higher, -0.0966 ± 0.016
- TACAGTAA — higher, 0.0205 ± 0.025
- CGTTATCA — higher, 0.238 ± 0.012
- ATTACATG — higher, -0.0706 ± 0.076
- ATGACGGG — higher, -0.0303 ± 0.024
- CATGGAAG — lower, -0.321 ± 0.032
- AAAGTAGC — higher, 0.0904 ± 0.058
- AAGCAATC — higher, -0.119 ± 0.034
- ACTCTGTA — higher, -0.143 ± 0.013
- GTGGGGTA — higher, -0.0459 ± 0.015
- GAGGTTGC — higher, 0.157 ± 0.015
- AGAACTCC — higher, -0.168 ± 0.029
- TGTTCGAA — higher, -0.00594 ± 0.024
- AACATGAA — higher, 0.032 ± 0.015
- ACTCGTTG — higher, 0.0179 ± 0.028
- GAAATCGA — higher, -0.00937 ± 0.048
- CCCTTCGA — higher, -0.0585 ± 0.062
- AGCTTCAA — higher, -0.195 ± 0.05
- AGAATCCT — higher, -0.149 ± 0.076
- TAGTGTCA — higher, 0.395 ± 0.027
- AAGACAGC — higher, -0.0516 ± 0.02
- ATTTTAAC — higher, 0.0282 ± 0.089
- ATTCACCC — higher, -0.18 ± 0.042
- TCCCGGAA — higher, -0.194 ± 0.036
- GGAATTAC — higher, -0.218 ± 0.017
- CTCGTTTC — higher, -0.109 ± 0.076
- CGAGGCAC — higher, 0.0808 ± 0.06
- CCGTAATA — within error, -0.236 ± 0.04
- CGAGAGAA — higher, 0.102 ± 0.021
- TACGTTGA — higher, -0.0664 ± 0.069
- CGCTCTCA — higher, 0.0857 ± 0.044
- AATAGGAT — higher, -0.144 ± 0.012
- AGGTAGAG — higher, -0.142 ± 0.064
- CGGCAGTA — higher, -0.128 ± 0.0017
- ACAGCGAC — higher, 0.0143 ± 0.12
- ATTCCCGG — higher, -0.228 ± 0.032
- TTAAGAAA — higher, -0.165 ± 0.066
- AAAAATAA — higher, -0.104 ± 0.092
- CACGTGGG — higher, 0.0958 ± 0.02
- AGAAAATA — higher, 0.0323 ± 0.03
- CCCGGTCC — within error, -0.294 ± 0.037
- GGCCCATA — lower, -0.341 ± 0.028
- AAGCTTGC — higher, 0.0506 ± 0.0071
- GGACGCTA — higher, -0.0248 ± 0.14
- CCGTAGAA — lower, -0.338 ± 0.034
- ACCGCGAC — higher, 0.18 ± 0.0039
- ACCTGCCT — higher, 0.0604 ± 0.069
- CTAGATAG — higher, 0.00035 ± 0.063
- ATACGGAA — higher, -0.225 ± 0.03
- CCGATCGA — higher, -0.0184 ± 0.032
- AGTCACGC — higher, 0.355 ± 0.0042
- GATAGAAA — higher, -0.0568 ± 0.013
- TCCCAGGA — higher, -0.149 ± 0.1
- AAATCTTC — higher, -0.18729 ± 2.8e-05
- GAATTCCA — higher, -0.0434 ± 0.077
- AGAGAACC — higher, -0.175 ± 0.069
- ACTTGGGC — higher, 0.037 ± 0.1
- CCTAAGAG — lower, -0.395 ± 0.032
- TGGCCCCA — higher, -0.00775 ± 0.092
- AGAGAACA — higher, 0.0218 ± 0.019
- ACATAGCC — higher, -0.215 ± 0.02
- CCCGCTGA — higher, 0.118 ± 0.013
- ATTCCCGC — higher, 0.0767 ± 0.0069
- AGGAGCCG — higher, 0.161 ± 0.0058
- CCCTATTC — higher, -0.075 ± 0.0014
- AGGCAGAG — within error, -0.169 ± 0.12
- ACTCCACC — higher, -0.0966 ± 0.022
- GGTGGTCA — higher, 0.0217 ± 0.017
- TGTGGAAA — higher, 0.23 ± 0.03
- ATCTTTTC — higher, -0.0625 ± 0.018
- AACTATTC — higher, -0.0329 ± 0.04
- CACCTCGC — higher, 0.458 ± 0.0073
- AGTTATTG — higher, -0.0545 ± 0.017
- CAAGCGTA — higher, -0.0541 ± 0.078
- CTTAACAC — higher, 0.434 ± 0.013
- CCCTGCAA — higher, -0.202 ± 0.028
- AAGCCCTA — higher, -0.183 ± 0.034
- ACGGGAGT — higher, 0.00023 ± 0.012
- CACATTCC — higher, 0.198 ± 0.033
- CCCATAGG — within error, -0.206 ± 0.12
- GTATCAAA — higher, -0.23 ± 0.027
- CCTTGGCA — higher, 0.075 ± 0.0069
- ACGGTTGC — higher, 0.0738 ± 0.027
- GTTATCGA — higher, 0.143 ± 0.045
- ACTTAAAA — higher, -0.137 ± 0.031
- ATGCGCGC — higher, 0.159 ± 0.041
- CTGGCCAA — higher, -0.173 ± 0.011
- CGGCTATC — higher, -0.153 ± 0.031
- AAGGGGCC — higher, -0.0989 ± 0.015
- AGTTACAG — higher, -0.145 ± 0.015
- ACACGGTC — higher, 0.0427 ± 0.034
- CACGATAG — higher, -0.0486 ± 0.033
- CCAAATGA — higher, -0.12 ± 0.077
- CGAACGCC — higher, 0.124 ± 0.053
- AGCGGAAT — higher, -0.139 ± 0.0086
- GATCATTA — lower, -0.321 ± 0.022
- AGCTGGGC — within error, -0.222 ± 0.056
- GCAGTCAA — higher, 0.084 ± 0.045
- AGATCGAC — higher, -0.146 ± 0.011
- TCCACACA — higher, 0.267 ± 0.02
- AAATTCGA — higher, -0.0418 ± 0.0085
- GGCATTGA — higher, -0.129 ± 0.038
- GCCAAGGC — higher, -0.021 ± 0.053
- CTAAAAAG — higher, 0.0405 ± 0.075
- CAGTGTCG — higher, 0.289 ± 0.0095
- ATGCACTG — higher, -0.2 ± 0.043
- AATATTTA — higher, -0.16 ± 0.087
- ACCAAAGA — higher, -0.0522 ± 0.0041
- TAGCAATA — higher, 0.0863 ± 0.0094
- ATTGGGAG — within error, -0.226 ± 0.044
- CACTACTC — higher, -0.096 ± 0.085
- AGAACAAT — higher, -0.125 ± 0.035
- CGTATAGC — higher, 0.011 ± 0.034
- GTCGTAAA — higher, -0.0603 ± 0.06
- AAAGTGTG — higher, 0.435 ± 0.012
- AAAACTCC — higher, -0.143 ± 0.087
- CCAACACC — higher, 0.443 ± 0.011
- ATCTTGCA — higher, 0.00605 ± 0.059
- CCGGACAC — higher, 0.168 ± 0.065
- GAAGCACC — higher, -0.131 ± 0.0077
- CCGTGCAG — higher, -0.116 ± 0.008
- GACTACTC — higher, -0.09932 ± 0.00083
- ATCGGATC — higher, -0.176 ± 0.078
- AGGCGTTA — higher, 0.4486 ± 0.0021
- CAATCCAA — higher, 0.14 ± 0.034
- ACGTGTAC — higher, -0.0192 ± 0.045
- CTCGCCGA — higher, 0.00819 ± 0.089
- AGTATAAT — higher, -0.0999 ± 0.092
- TACTACCA — lower, -0.37 ± 0.019
- CAAAGATA — higher, -0.0148 ± 0.024
- CGTCCAGA — higher, -0.109 ± 0.044
- GCATATCC — higher, 0.0235 ± 0.028
- GAACGCGA — higher, 0.203 ± 0.025
- CGAATTCG — higher, 0.19 ± 0.0055
- ATATGTAC — higher, -0.225 ± 0.029
- CGCGCACC — higher, 0.206 ± 0.0087
- AGAGCAGA — higher, -0.172 ± 0.022
- ACCGTATA — higher, -0.165 ± 0.004
- CAGAGGCA — within error, -0.215 ± 0.071
- AGACGGAT — within error, -0.228 ± 0.095
- ATAGAAAA — higher, -0.0831 ± 0.057
- AAGCCGCT — higher, -0.0516 ± 0.058
- AGATACTG — higher, -0.154 ± 0.011
- ACTCTCAC — higher, 0.3138 ± 0.0026
- CATAATAA — higher, -0.206 ± 0.013
- AATTGCGT — higher, -0.0764 ± 0.07
- AATATTGC — higher, -0.00643 ± 0.055
- CCTGAATA — higher, 0.036 ± 0.032
- CACACAGC — higher, 0.262 ± 0.0099
- CCTTGTCA — higher, 0.26 ± 0.015
- AGCGCTCA — higher, 0.053 ± 0.024
- AAATGTGA — higher, 0.277 ± 0.044
- AATGACGA — higher, 0.00527 ± 0.012
- GATTCATA — within error, -0.227 ± 0.11
- CAAAGAGG — higher, 0.105 ± 0.051
- CTAGGAGC — higher, -0.0098 ± 0.016
- CAATAGCC — higher, -0.0484 ± 0.13
